Results from the supplement of paper PMC7411054.
Structures can show the parent of a compound that is named as a salt. For some assays here: Most of the hits are listed elsewhere, so they are rarer here than in the full data. This is a selection; strong and weak results do not stand in their true shares.

Experiments:
Settings in all cases: treatment time: 24 h
[1] = test system: A549-ACTB-RAB5A; assay: phenotypically active (imaging signature differs from DMSO and reproducible) at any of 0.3-9 uM (binary (1 = active, 0 = inactive)); higher = active
Summary of the method: (§1)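 Two criteria together defined phenotypic activity: deviation and reproducibility. Deviation meant ≥3 of 4 wells beyond the 95th percentile of Euclidean distances in solvent control wells, and reproducibility meant a median replicate Pearson correlation above the 95th percentile of non-replicates. Wells had been treated for 24 h at 0.3, 1, 3 or 9 µM in fifteen gene-edited A549, HepG2 and WPMY1 reporter lines before live imaging.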

[2] = test system: A549-CANX-COX4; assay: as above
Summary of the method: as §1

[3] = test system: A549-GM130-SQSTM1; assay: as above
Summary of the method: as §1

[4] = test system: A549-TP53BP1-CLTA; assay: as above
Summary of the method: as §1

[5] = test system: A549-TUBA1B-RELA; assay: as above
Summary of the method: as §1

[6] = test system: HepG2-ACTB-RAB5A; assay: as above
Summary of the method: as §1

[7] = test system: HepG2-CANX-COX4; assay: as above
Summary of the method: as §1

[8] = test system: HepG2-GM130-SQSTM1; assay: as above
Summary of the method: as §1

[9] = test system: HepG2-TP53BP1-CLTA; assay: as above
Summary of the method: as §1

[10] = test system: HepG2-TUBA1B-RELA; assay: as above
Summary of the method: as §1

[11] = test system: WPMY1-ACTB-RAB5A; assay: as above
Summary of the method: as §1

[12] = test system: WPMY1-CANX-COX4; assay: as above
Summary of the method: as §1

[13] = test system: WPMY1-GM130-SQSTM1; assay: as above
Summary of the method: as §1

[14] = test system: WPMY1-TP53BP1-CLTA; assay: as above
Summary of the method: as §1

[15] = test system: WPMY1-TUBA1B-RELA; assay: as above
Summary of the method: as §1

[16] = test system: WPMY1-ACTB-RAB5A; assay: lowest phenotypically active concentration; higher = less potent
Summary of the method: as §1

[17] = test system: WPMY1-CANX-COX4; assay: as above
Summary of the method: as §1

[18] = test system: WPMY1-GM130-SQSTM1; assay: as above
Summary of the method: as §1

[19] = test system: WPMY1-TP53BP1-CLTA; assay: as above
Summary of the method: as §1

[20] = test system: WPMY1-TUBA1B-RELA; assay: as above
Summary of the method: as §1

CN1[C@@H]2CC[C@H]1C[C@@H](OC(=O)C(O)c1ccccc1)C2 (stereo partly drawn) [Homatropine HBr]
inactive: phenotypically active [1] 0 | phenotypically active [2] 0 | phenotypically active [3] 0 | phenotypically active [4] 0 | phenotypically active [5] 0 | phenotypically active [6] 0 | phenotypically active [7] 0 | phenotypically active [8] 0 | phenotypically active [9] 0 | phenotypically active [10] 0 | phenotypically active [11] 0 | phenotypically active [12] 0 | phenotypically active [13] 0 | phenotypically active [14] 0 | phenotypically active [15] 0

O=C1NC(=O)c2c1c(-c1ccccc1)cc1[nH]c3ccc(O)cc3c21
≤ 0.3 µM: lowest phenotypically active concentration [16] | lowest phenotypically active concentration [17] | lowest phenotypically active concentration [18] | lowest phenotypically active concentration [19]
active: phenotypically active [1] 1 | phenotypically active [2] 1 | phenotypically active [3] 1 | phenotypically active [4] 1 | phenotypically active [5] 1 | phenotypically active [6] 1 | phenotypically active [7] 1 | phenotypically active [8] 1 | phenotypically active [9] 1 | phenotypically active [10] 1 | phenotypically active [11] 1 | phenotypically active [12] 1 | phenotypically active [13] 1 | phenotypically active [14] 1 | phenotypically active [15] 1
3 µM: lowest phenotypically active concentration [20]

COc1cc(N2CCN(C(C)=O)CC2)ccc1Nc1ncc(Cl)c(Nc2ccc(N3CCN(C(C)=O)CC3)cc2OC)n1
active: phenotypically active [1] 1 | phenotypically active [2] 1 | phenotypically active [3] 1 | phenotypically active [4] 1 | phenotypically active [5] 1 | phenotypically active [6] 1 | phenotypically active [7] 1 | phenotypically active [8] 1 | phenotypically active [9] 1 | phenotypically active [10] 1 | phenotypically active [12] 1 | phenotypically active [13] 1 | phenotypically active [14] 1
3 µM: lowest phenotypically active concentration [19]
9 µM: lowest phenotypically active concentration [17] | lowest phenotypically active concentration [18]
inactive: phenotypically active [11] 0 | phenotypically active [15] 0

COC(=O)[C@H](CCCNC(=N)N)NS(=O)(=O)c1ccc(C)cc1 [TAME hydrochloride]
inactive: phenotypically active [1] 0 | phenotypically active [2] 0 | phenotypically active [3] 0 | phenotypically active [4] 0 | phenotypically active [5] 0 | phenotypically active [6] 0 | phenotypically active [7] 0 | phenotypically active [8] 0 | phenotypically active [9] 0 | phenotypically active [10] 0 | phenotypically active [11] 0 | phenotypically active [12] 0 | phenotypically active [13] 0 | phenotypically active [14] 0 | phenotypically active [15] 0
